Experimental data reported in PubChem BioAssay AID504332 (National Center for Advancing Translational Sciences (NCATS), 2011).
Where “and” joins values, the source holds several entries; their conditions need not be identical. Equal entries are not always repeated. In all, about 350,000 compounds went through this assay and about 31,000 (8.9%) were called active. Inconclusive means that the source gave no clear call. Such entries were picked first, then a sample of the others. Calls come from the whole dose curve; as a rule, active = well fitted inhibition curve with a large enough effect; inconclusive = small, poorly fitted or top-dose-only effect; inactive = no such curve, though single readings can be large or run the other way. Where the call is inconclusive, the potency comes from a doubtful curve fit.

What follows are compounds tested against Histone-lysine N-methyltransferase EHMT2 (Homo sapiens) (UniProt Q96KQ7) (assay: qHTS Assay for Inhibitors of Histone Lysine Methyltransferase G9a). Conditions: G9a H3K9 monomethylation, AlphaScreen, 2 h; activity, negative = inhibition: at 59 µM (top of the series) unless noted.
Method in brief: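 Signal arises when biotinylated H3K9 peptide, once monomethylated, bridges streptavidin donor and antibody-captured acceptor beads. Enzyme at 20 nM was preincubated 15 min with test compounds; peptide 500 nM and SAM 20 uM then reacted for 2 h.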
% is set by controls: 0 for no effect and ±100 for the full control effect; potency is the fitted concentration of half-maximal effect; tags give direction and shape of the fitted curve.
Note: nearly all actives have a fitted effect of over 75% in size.

Chain of UniProt Q96KQ7 (Q96KQ7 whole entry, looked up): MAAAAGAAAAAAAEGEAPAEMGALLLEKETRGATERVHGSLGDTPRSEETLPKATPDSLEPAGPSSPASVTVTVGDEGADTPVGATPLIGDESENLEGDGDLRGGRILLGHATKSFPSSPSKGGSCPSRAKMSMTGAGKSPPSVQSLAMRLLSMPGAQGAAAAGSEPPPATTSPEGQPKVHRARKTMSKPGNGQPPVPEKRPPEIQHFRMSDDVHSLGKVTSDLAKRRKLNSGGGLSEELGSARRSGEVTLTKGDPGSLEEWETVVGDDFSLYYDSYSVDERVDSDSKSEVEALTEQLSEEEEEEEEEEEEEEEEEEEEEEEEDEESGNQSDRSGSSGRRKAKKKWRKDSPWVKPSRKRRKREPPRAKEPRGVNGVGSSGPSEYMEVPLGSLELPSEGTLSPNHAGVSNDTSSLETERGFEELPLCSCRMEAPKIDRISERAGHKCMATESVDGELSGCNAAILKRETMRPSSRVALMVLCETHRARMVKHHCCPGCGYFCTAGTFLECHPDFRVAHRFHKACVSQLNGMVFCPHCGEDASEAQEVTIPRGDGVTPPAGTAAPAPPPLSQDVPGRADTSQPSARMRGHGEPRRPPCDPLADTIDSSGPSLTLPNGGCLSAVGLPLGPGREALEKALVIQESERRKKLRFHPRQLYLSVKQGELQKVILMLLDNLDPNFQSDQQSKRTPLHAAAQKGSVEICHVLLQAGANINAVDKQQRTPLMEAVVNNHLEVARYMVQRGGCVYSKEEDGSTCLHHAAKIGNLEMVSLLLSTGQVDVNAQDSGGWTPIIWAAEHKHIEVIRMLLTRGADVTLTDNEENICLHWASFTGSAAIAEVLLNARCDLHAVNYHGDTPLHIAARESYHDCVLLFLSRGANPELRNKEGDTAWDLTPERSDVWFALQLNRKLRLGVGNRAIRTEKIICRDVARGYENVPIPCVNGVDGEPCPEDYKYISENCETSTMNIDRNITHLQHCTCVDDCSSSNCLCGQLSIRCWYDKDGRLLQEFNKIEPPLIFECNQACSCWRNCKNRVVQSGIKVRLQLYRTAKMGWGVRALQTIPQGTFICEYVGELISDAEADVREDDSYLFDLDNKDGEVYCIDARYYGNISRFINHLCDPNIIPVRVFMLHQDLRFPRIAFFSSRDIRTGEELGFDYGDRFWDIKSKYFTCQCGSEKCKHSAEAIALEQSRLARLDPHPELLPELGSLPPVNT

With `Cc1cccc(N(Cc2ccccc2)C(=O)c2ccc(S(C)(=O)=O)cc2)c1` as the compound, how does the Potency read?
Its Potency is inconclusive: 56.2 µM [inhibitor, partial curve, poor fit].

Which Potency does the source give for `C[n+]1cc2c3c(ccc2c2ccc4cc5c(cc4c21)OCO5)OCO3` here?
Its Potency is active: 12.6 µM and active: 631 nM and active: 1.89 µM.

For `COc1cnc(-c2ccccc2)nc1Oc1ccccc1C`, which “activity, negative = inhibition” value is on record?
The value was inactive: -62.6% [at 102 µM].

`CCCOc1ccc(C(=O)Nc2ccc3c(c2)OCO3)cc1` was tested. Which Potency did it give?
The Potency was inconclusive: 89.1 µM [inhibitor, single point].

For `C=CCOc1ccccc1CNCc1ccc(F)cc1`, which “activity, negative = inhibition” value is on record?
The value was inactive: -38% [at 102 µM].

How did the Potency turn out when `Cc1nonc1C(=O)N1CCCC(Nc2ccc(C(C)C)cc2)C1` (centres undefined) was run?
Its Potency is active: 35.5 µM.

`O=C(CCN1C(=O)c2ccccc2S1(=O)=O)N1CCN(c2ccc(F)cc2)CC1` was tested. Which Potency did it give?
The Potency was inconclusive: 79.4 µM [inhibitor, single point].

How did the Potency turn out when `COc1ccc(/C=N/NC(=O)C(C)Sc2ccccn2)cc1[N+](=O)[O-]` (centres undefined) was run?
Its Potency is inconclusive: 50.1 µM [inhibitor, partial curve, poor fit].

Which “activity, negative = inhibition” value does the source give for `CCC1CCCCN1C(=O)CSc1nc(N)c(NC(=O)c2ccco2)c(=O)[nH]1` (centres undefined) here?
The value was inactive: 17.4%.

`Cn1c(N)c(C(=O)COC(=O)c2ccccn2)c(=O)n(C)c1=O` was tested. Which Potency did it give?
Its Potency is active: 20 µM.

`Cc1ccc(NC(=O)Cn2cnc3onc(-c4ccc(F)cc4)c3c2=O)c(Cl)c1` was tested. Which “activity, negative = inhibition” value did it give?
Its value is inactive: -2.94%.

How did the “activity, negative = inhibition” value turn out when `CCCCOC(=O)c1ccc(NC(=S)NC(=O)c2ccco2)cc1` was run?
The value was inactive: -45.5% [at 102 µM].

For `Cc1ccc(S(=O)(=O)C(C#N)c2nc3ccccc3nc2N2CCCC2)cc1C` (centres undefined), which Potency is on record?
The Potency was active: 2.82 µM.

With `COc1ccc(C2C(C#N)=C(N)Oc3c2oc(CO)cc3=O)cc1` (centres undefined) as the compound, how does the Potency read?
The Potency was inconclusive: 79.4 µM [inhibitor, single point].

Which Potency does the source give for `O=c1nc(/C=C/c2cccn2-c2ccc([N+](=O)[O-])cc2)cc(C(F)(F)F)[nH]1` here?
Its Potency is inconclusive: 79.4 µM [inhibitor, single point].

How did the Potency turn out when `O=C(CC1C(=O)NCCN1Cc1ccccc1C(F)(F)F)NCCN1CCCCC1=O` (centres undefined) was run?
The Potency was active: 39.8 µM.

With `CN1C(=O)/C(=C/c2ccccc2Cl)Sc2ccc(C(=O)NCc3cccnc3)cc21` as the compound, how does the Potency read?
Its Potency is inconclusive: 50.1 µM [inhibitor, partial curve].

`CCOc1ccc(C2/C(=C(/O)c3ccc(OC)cc3)C(=O)C(=O)N2c2cc(C)on2)cc1OC` (centres undefined) was tested. Which Potency did it give?
The Potency was inconclusive: 89.1 µM [inhibitor, single point].

For `CCCC(=O)N(c1ccc2oc(=O)sc2c1)S(=O)(=O)c1cccs1`, which Potency is on record?
Its Potency is active: 39.8 µM.

`CCCc1oc(C(=O)O)cc1CN` was tested. Which Potency did it give?
The Potency was inconclusive: 79.4 µM [inhibitor, single point].

`OCCC#Cc1ccc(CN2CCN(Cc3ccsc3)C(CCO)C2)cc1` (centres undefined) was tested. Which Potency did it give?
The Potency was inconclusive: 17.8 µM [inhibitor, full curve].

With `COc1ccc(-c2nc3ccc([N+](=O)[O-])cc3o2)cc1` as the compound, how does the Potency read?
The Potency was inconclusive: 0.251 µM [inhibitor, full curve].

For `CSc1cccc(NC(=S)N(CCCN2CCCC2)Cc2cccs2)c1`, which “activity, negative = inhibition” value is on record?
The value was inactive: -3.7%.

For `Cc1[nH]c(-c2ccc(F)cc2)cc1C(=O)N1CCN(c2cccc(Cl)c2)CC1`, which Potency is on record?
The Potency was inconclusive: 70.8 µM [inhibitor, single point].

`CCc1ccc(NC(=O)CSc2nc3ccccc3c(=O)n2CCCC(=O)NCCCN2CCOCC2)cc1` was tested. Which Potency did it give?
The Potency was inconclusive: 4.47 µM [inhibitor, partial curve, poor fit].

How did the Potency turn out when `COc1ccc2cc(CN(CCCN3CCOCC3)Cc3nnnn3C3CCCC3)c(=O)[nH]c2c1` was run?
Its Potency is inconclusive: 31.6 µM [inhibitor, single point].

For `O=C1CCCC2=C1C1O[C@](c3ccsc3)(Cc3c1ccc1ccccc31)O2`, which activity, negative = inhibition is on record?
The activity, negative = inhibition was inactive: -21.6% [at 2.33 µM].

How did the “activity, negative = inhibition” value turn out when `Cc1cccc(CC(=O)Nc2ccc3nc(N4CCC(C)CC4)cc(C)c3c2)c1` was run?
Its value is inactive: 17.8%.

How did the activity, negative = inhibition turn out when `COc1ccc2sc(-c3ccc(N(C)C)cc3)c(C#CCCO)c2c1` was run?
The activity, negative = inhibition was inactive: -0.844% [at 0.501 µM].

`C=CCn1c(SCC(=O)Nc2cc3oc4ccccc4c3cc2OC)nnc1-c1cnccn1` was tested. Which Potency did it give?
The Potency was inconclusive: 79.4 µM [inhibitor, single point].

For `COc1cccc(C(=O)NCCS(=O)(=O)N(C)Cc2ccccc2)c1`, which Potency is on record?
The Potency was active: 44.7 µM.

Which Potency does the source give for `O=C(CSc1cn(CCNC(=O)c2cccc(C(F)(F)F)c2)c2ccccc12)Nc1ccc2c(c1)OCCO2` here?
The Potency was inconclusive: 31.6 µM [inhibitor, partial curve, poor fit].

How did the Potency turn out when `Cc1cc([N+](=O)[O-])ccc1NC(=O)CSc1nccc(=O)[nH]1` was run?
The Potency was inconclusive: 50.1 µM [inhibitor, partial curve, poor fit].

`COC(=O)Cn1c(=NC(=O)CCS(=O)(=O)c2ccccc2)sc2c(OC)ccc(OC)c21` was tested. Which Potency did it give?
The Potency was inconclusive: 89.1 µM [inhibitor, single point].

For `CNCc1cc2ccc(C)cc2[nH]c1=O`, which Potency is on record?
The Potency was inconclusive: 89.1 µM [inhibitor, single point].

Which activity, negative = inhibition does the source give for `CC(C)c1ccccc1NC(=O)CNCCc1ccc(C(F)(F)F)cc1` here?
Its activity, negative = inhibition is inactive: -9.27% [at 12.7 µM].

How did the Potency turn out when `O=[N+]([O-])c1cccc(C2=N[C@@H](Cc3ccccc3)CO2)c1` was run?
The Potency was inconclusive: 35.5 µM [inhibitor, partial curve, poor fit].

Which Potency does the source give for `CC(=O)N1CC(=O)N=C1SCC(=O)Nc1nc(-c2ccccc2)c(-c2ccccc2)s1` here?
The Potency was inconclusive: 6.31 µM [inhibitor, partial curve, poor fit].

For `C=CCn1c(CNC(=O)c2cccs2)n[nH]c1=S`, which Potency is on record?
The Potency was active: 25.1 µM.

`COc1cccc(OCC(=O)O/N=C(\N)c2ccncc2)c1` was tested. Which “activity, negative = inhibition” value did it give?
The value was inactive: 22% [at 102 µM].

With `O=C(O)c1cccc(-c2ccc(/C=N/Nc3nn[nH]n3)o2)c1` as the compound, how does the Potency read?
Its Potency is active: 44.7 µM.

How did the Potency turn out when `CCOc1ccc(C2/C(=C(/O)c3ccc4c(c3)CC(C)O4)C(=O)C(=O)N2CC2CCCO2)cc1` (centres undefined) was run?
Its Potency is inconclusive: 44.7 µM [inhibitor, partial curve, poor fit].

With `CC(=O)Nc1cccc(NC(=O)Cc2cccs2)c1` as the compound, how does the Potency read?
Its Potency is active: 79.4 µM.

With `Cc1ccc(Sc2nc(C)c([N+](=O)[O-])c(C)c2C#N)cc1` as the compound, how does the Potency read?
The Potency was inconclusive: 50.1 µM [inhibitor, partial curve, poor fit].
